Here are results for 17 molecules from US7592316B2, “Peptides as NS3-serine protease inhibitors of hepatitis C virus” (Schering Corporation, priority 2000, dated 2009).

*1 amine or outer side, *2 acyl side, *3 side chain or, on linkers, in order; H or OH if unused. Where a SMILES comes first, the peptide text is derived from it. [ ]: non-standard residue; d: D form. The star is where a group is joined. ξ: configuration not given here. Pro(3R,4S-CMe2) = CC1(C)[C@@H]2[C@@H](C(=O)O)NC[C@@H]21; ξ(3-Amino-2-oxopentanoyl) = CCC(N[*:1])C(=O)C(=O)[*:2]; Pro(3S,4R-CMe2) = CC1(C)[C@H]2[C@@H](C(=O)O)NC[C@H]21; Pro(3S,4R-methano) = O=C(O)[C@H]1NC[C@@H]2C[C@@H]21; ξPro(4R-OtBu) = CC(C)(C)O[C@H]1CNC(C(=O)O)C1; Gly(1-Me-cHex) = CC1([C@H](N)C(=O)O)CCCCC1; Neopentyloxycarbonyl = CC(C)(C)COC(=O)*; Pro(4,4-Me2) = CC1(C)CN[C@H](C(=O)O)C1; X19 = CCC[C@@H](N[*:1])C(=O)C(=O)[*:2]; X25 = O=C(O)c1c(F)c(F)c(F)c(F)c1C(=O)*; X12 = CCC[C@H](N[*:1])C(=O)C(=O)[*:2]; ξPro(4R-Me) = C[C@H]1CNC(C(=O)O)C1; X4 = CCCCC(N[*:1])C(=O)C(=O)[*:2]; Hyp = O=C(O)[C@@H]1C[C@@H](O)CN1; X2 = CCCC(N[*:1])C(=O)C(=O)[*:2]; Aad = N[C@@H](CCCC(=O)O)C(=O)O; Chg = N[C@H](C(=O)O)C1CCCCC1; Phg = N[C@H](C(=O)O)c1ccccc1; Tle = CC(C)(C)[C@H](N)C(=O)O; X20 = CC(C)[C@@H](C)OC(=O)*; X24 = CC(=O)c1ccccc1C(=O)*; X18 = CC(C)C(C)OC(=O)*; X21 = CC(C)S(=O)(=O)*; Bn = c1ccc(C*)cc1; OtBu = CC(C)(C)O*; tBu = CC(C)(C)*

The first test addresses HCV NS3/NS4A protease (strain 1a) (Hepatitis C virus genotype 1a, UniProt P27958). Put plainly: biochemical. As to conditions: Compounds prepared by Solid Phase Synthesis, Table 3; read-out: Ki* CLASS.
Consider `CCCC(NC(=O)[C@@H]1C[C@@H](OC(C)(C)C)CN1C(=O)[C@@H](NC(=O)c1ccccc1C(C)=O)C1CCCCC1)C(=O)C(=O)NCC(=O)N[C@H](C(N)=O)c1ccccc1` (some centres unmarked) (X24-[Chg][Hyp](tBu)[X2]G[Phg]-NH2), for which the Ki is above 1000 nM.
In the case of `CCC(NC(=O)[C@@H]1C[C@@H](OC(C)(C)C)CN1C(=O)[C@@H](NC(=O)c1ccccc1C(C)=O)C1CCCCC1)C(=O)C(=O)NCC(=O)N[C@H](C(N)=O)c1ccccc1` (some centres unmarked) (X24-[Chg][Hyp](tBu)[ξ(3-Amino-2-oxopentanoyl)]G[Phg]-NH2), the Ki was above 1000 nM.
`CCCC(NC(=O)[C@@H]1C[C@@H](OCc2ccccc2)CN1C(=O)[C@H](CCCC(=O)OC(C)(C)C)NC(=O)c1c(F)c(F)c(F)c(F)c1C(=O)O)C(=O)C(=O)NCC(=O)N[C@H](C(N)=O)c1ccccc1` (some centres unmarked) (X25-[Aad](OtBu)[Hyp](Bn)[X2]G[Phg]-NH2): the inhibition constant Ki fell in the range of 101 to 1000 nM.
The same measure, in the same setting: in the case of `CCCC(NC(=O)[C@@H]1C[C@@H](OCc2ccccc2)CN1C(=O)[C@H](CCCC(=O)O)NC(=O)c1c(F)c(F)c(F)c(F)c1C(=O)O)C(=O)C(=O)NCC(=O)N[C@H](C(N)=O)c1ccccc1` (some centres unmarked) (X25-[Aad][Hyp](Bn)[X2]G[Phg]-NH2) it was 101 to 1000 nM.

Still in this test, the particulars now being: Table 4; HCV NS3/NS4A protease, spectrophotometric assay, 30° C., pH 6.5; read-out: Ki* Range.
On to `CCCC(NC(=O)C1C[C@@H](C)CN1C(=O)[C@@H](NC(=O)OCC(C)(C)C)C1CCCCC1)C(=O)C(=O)NCC(=O)N[C@H](C(=O)O)c1ccccc1` (stereo partly drawn) (Neopentyloxycarbonyl-[Chg][ξPro(4R-Me)][X2]G[Phg]-OH), for which the Ki is 101 to 1000 nM.
Still for that read-out and setting: the same measure for `CCCC(NC(=O)C1C[C@@H](OC(C)(C)C)CN1C(=O)[C@@H](NC(=O)OCC(C)(C)C)C1CCCCC1)C(=O)C(=O)NCC(=O)N[C@H](C(=O)O)c1ccccc1` (stereo partly drawn) (Neopentyloxycarbonyl-[Chg][ξPro(4R-OtBu)][X2]G[Phg]-OH): 101 to 1000 nM; for `CCC[C@@H](NC(=O)[C@@H]1[C@@H]2[C@H](CN1C(=O)[C@@H](NC(=O)O[C@H](C)C(C)C)C1(C)CCCCC1)C2(C)C)C(=O)C(=O)NCC(=O)N[C@H](C(=O)N(C)C)c1ccccc1` (X20-[Gly(1-Me-cHex)][Pro(3R,4S-CMe2)][X19]G[Phg]-NMe2): 1 to 100 nM; for `CCC[C@H](NC(=O)[C@@H]1[C@H]2C[C@H]2CN1C(=O)[C@@H](NC(=O)O[C@H](C)C(C)C)C1(C)CCCCC1)C(=O)C(=O)NCC(=O)N[C@H](C(=O)N(C)C)c1ccccc1` (X20-[Gly(1-Me-cHex)][Pro(3S,4R-methano)][X12]G[Phg]-NMe2): 1 to 100 nM.
Take `CCC[C@H](NC(=O)[C@@H]1[C@H]2C[C@H]2CN1C(=O)[C@@H](NC(=O)O[C@H](C)C(C)C)C(C)(C)C)C(=O)C(=O)NCC(=O)N[C@H](C(=O)N(C)C)c1ccccc1` (X20-[Tle][Pro(3S,4R-methano)][X12]G[Phg]-NMe2): the Ki was 1 to 100 nM.
Regarding `CCCC(NC(=O)[C@@H]1CC(C)(C)CN1C(=O)[C@@H](NC(=O)O[C@H](C)C(C)C)C(C)(C)C)C(=O)C(=O)NCC(=O)N[C@H](C(=O)N(C)C)c1ccccc1` (some centres unmarked) (X20-[Tle][Pro(4,4-Me2)][X2]G[Phg]-NMe2), the inhibitory constant (Ki) lay within 1 to 100 nM.

Staying with this test, now noted: Table 5; HCV NS3/NS4A protease, spectrophotometric assay, 30° C., pH 6.5; read-out: Ki* Range.
As to `CCCC(NC(=O)[C@@H]1[C@@H]2[C@H](CN1C(=O)[C@@H](NC(=O)OC(C)C(C)C)C(C)(C)C)C2(C)C)C(=O)C(=O)NCC(=O)N[C@H](C(=O)N(C)C)c1ccccc1` (stereo partly drawn) (X18-[Tle][Pro(3R,4S-CMe2)][X2]G[Phg]-NMe2), the Ki fell in the range of 1 to 100 nM.
As to `CCC[C@H](NC(=O)[C@@H]1[C@@H]2[C@H](CN1C(=O)[C@@H](NC(=O)OC(C)C(C)C)C(C)(C)C)C2(C)C)C(=O)C(=O)NCC(=O)N[C@H](C(=O)N(C)C)c1ccccc1` (stereo partly drawn) (X18-[Tle][Pro(3R,4S-CMe2)][X12]G[Phg]-NMe2), the Ki is 1 to 100 nM.
As to `CCC[C@@H](NC(=O)[C@@H]1[C@@H]2[C@H](CN1C(=O)[C@@H](NC(=O)OC(C)C(C)C)C(C)(C)C)C2(C)C)C(=O)C(=O)NCC(=O)N[C@H](C(=O)N(C)C)c1ccccc1` (stereo partly drawn) (X18-[Tle][Pro(3R,4S-CMe2)][X19]G[Phg]-NMe2), the Ki was in the range of 1 to 100 nM.
As for `CCCCC(NC(=O)[C@@H]1[C@H]2[C@@H](CN1C(=O)[C@@H](NC(=O)OC(C)C(C)C)C(C)(C)C)C2(C)C)C(=O)C(=O)NCC(=O)N[C@H](C(=O)N(C)C)c1ccccc1` (stereo partly drawn) (X18-[Tle][Pro(3S,4R-CMe2)][X4]G[Phg]-NMe2), the Ki lay within 1 to 100 nM.
For `CCCC(NC(=O)[C@@H]1[C@@H]2[C@H](CN1C(=O)[C@@H](NS(=O)(=O)C(C)C)C(C)(C)C)C2(C)C)C(=O)C(=O)NCC(=O)N[C@H](C(=O)N(C)C)c1ccccc1` (stereo partly drawn) (X21-[Tle][Pro(3R,4S-CMe2)][X2]G[Phg]-NMe2), the Ki lay in the range of 1 to 100 nM.
As for `CCC[C@H](NC(=O)[C@@H]1[C@@H]2[C@H](CN1C(=O)[C@@H](NS(=O)(=O)C(C)C)C(C)(C)C)C2(C)C)C(=O)C(=O)NCC(=O)N[C@H](C(=O)N(C)C)c1ccccc1` (X21-[Tle][Pro(3R,4S-CMe2)][X12]G[Phg]-NMe2), the inhibition constant Ki was 1 to 100 nM.
On the same count and under the same terms, the same measure for `CCC[C@@H](NC(=O)[C@@H]1[C@@H]2[C@H](CN1C(=O)[C@@H](NS(=O)(=O)C(C)C)C(C)(C)C)C2(C)C)C(=O)C(=O)NCC(=O)N[C@H](C(=O)N(C)C)c1ccccc1` (X21-[Tle][Pro(3R,4S-CMe2)][X19]G[Phg]-NMe2): 1 to 100 nM.

A word on the Ki: it is a measure of affinity in units of concentration, obtained from inhibition or displacement.
